According to the supplement of paper PMC9513381:
Substitutions are numbered along the chain they refer to. Recombinant human monoclonal antibodies (heavy:light variable regions). ELISA EC50 on the named antigen, from 10 µg/ml down; IC50 / IC90 against spike pseudovirus on 293T-ACE2 cells, 48 h; lower = stronger. Calls: IC50 above 1,000 ng/ml = non-neutralizing; EC50 above 1,000 ng/ml = non-binder. The source prints 1000 for neutralization that was not reached; it is given as >1000 ng/ml. Only binders of the Wuhan-Hu-1 domain have neutralization values.

How the values were obtained:
Assay in all cases: ELISA binding EC50; higher = weaker binding; ELISA of recombinant human antibody on coated antigen, from 10 µg/ml in fourfold dilutions; four-parameter fit.
[1] = target: SARS-CoV-2 Delta (B.1.617.2) spike RBD
[2] = target: SARS-CoV-2 Omicron BA.1 spike protein
[3] = target: SARS-CoV-2 Wuhan-Hu-1 spike receptor-binding domain

Measured: ELISA binding EC50

B1: B621 (protein)
chain 1: QVQLQESGPGLARPSETLSLTCGVTGYSISVGYYWGWFRQPPGKGLEWVGSMYHSGPAYYNSSLKSRVSISIQASKNRFSLSLSSVTAADSAVYFCAASGVGRAGALSYDAWGQGTLVLVSS
chain 2: EIVLTQSPGTLSLSPGERATLSCRASQSVSRTYLAWYQQKPGQAPRLLIYGVSSRATGIPDRFSGSGSGTDFTLTISRLEPEDFAVYYCQQYRTFGQGTKVEIK
> 1 µg/mL: all assays above

B2: B1056 (protein)
chain 1: QVQLVQSGAEVKKPGASVKVSCKASGYTFTSYDIDWVRQATGQGLEWMGWMNPNSGNTGYAQKFQGRVTMTRNTSISTAYMELSSLRSEDTAVYYCARAIWFGELPSAWGQGTLVTVSS
chain 2: not shown
> 1 µg/mL: all assays above

B3: B2101 (protein)
chain 1: QVQLQESGPGLVKPSETLSVTCAVSGYSISSSYYWGWIRQSPGRGLEWIGSIYHSGTTYHNPSVKSRLTISVDTPTNQFSLTLRSVTAADTAMYYCASNSGQVVIGAFDIWGQGTMVTVSS
chain 2: EIVLTQSPGTLSLSPGERATLSCRASQSVRNSYLAWYQQKPGQAPRLLIYGASRRATDIPDRFSGSGSGTDFTLTISRLEPEDFAVYYCQHYGDSPLTFGGGTKVEIK
> 1 µg/mL: all assays above

B4: B2107 (protein)
chain 1: B3 chain 1 with H60Y, P75S
chain 2: EIVLTQSPGTLSLSPGERATLSCRASLSLSSTYLAWYQQRPGQAPRLLIYGASSRATGIPDRFSGSGSGTDFTLTISRLEPEDFAVYYCQQYGRSPWTFGQGTKVEIK
> 1 µg/mL: all assays above

B5: B2105 (protein)
chain 1: B3 chain 1 with H60Y, P75S
chain 2: DIQMTQSPSTLSASVGDRVTITCRASQSINSWLAWYQQKPGKAPELLIYDASSLQSGVPSRFSGSGSETEFTLTISSLQPDDFATYYCQQYKTYSWTFGQGTKVEIK
> 1 µg/mL: all assays above

B6: B625 (protein)
chain 1: QLQLQESGPGLVKPSETLSLTCTVSGGSISSSSFYWGWIRQPPGKGLEWIGSIYYSGSTYYNPSLKSRVTISVDTSKNQFSLRLSSVSAADTAVYYCARHGPRPHYDFLTGDSDYYYYGLDVWGQGTTVTVSS
chain 2: DIQMTQSPSSLSASVGDRVTITCRASHNIRSYLNWYQQKPGKAPNLLIYVATSLQSGVPSRFSGSGSGTDFTLTISSLQPEDFATYYCQQSFTTPRTFGQGTRVEIK
> 1 µg/mL: all assays above

B7: B1080 (protein)
chain 1: EVQLVESGRGLVQPGRSLRLSCAASGFTFDDYAMHWVRQAPGKGLEWVSGISWNSGSIGYVDSVKGRFTISRDNAKNTLYLQMNSLRAEDTALYYCAKGTIAVPLRECSLDYWGQGTLVTVSS
chain 2: DIQMTQSPSSLSTSVGDRVTITCRASQSIYGFLNWYQQRPGKAPKLLIYAASSLQSGVPSRFSGSGSGTDFTLTISSLQPEDFATYYCQQSYITPYTFGQGTKLEIK
> 1 µg/mL: all assays above

B8: B1099 (protein)
chain 1: EVQLVESGGGLVQPGGSLRLSCTASGFTFDDYALQWVRQAPGKGLEWISGINWNSGSRGYANSVKGRFTISRDNAKNSLYLQMNSLRADDTAFYYCAKDRNRRGLTHDFEYFQHWGQGALVTVSS
chain 2: EIVMTQSPATLSVSPGERATLSCRASQTVSSNLAWYQQKPGQGPRLLIHGATTRATGIPARFSGSGSGTEFTLTISSLQSEDFAIYYCQQYKAWPRTFGQGTKVEIK
> 1 µg/mL: all assays above

B9: B630 (protein)
chain 1: EVQLVESGGGLVQPGGSLRLSCTASGFTFSRYDMHWVRQPTGKGLEWVSAIGTSGDRYYPDSVKGRFTISREDAKNSLYLQMNNLRAGDTAVYYCARGDSTTSLLRHYYYMDVWGRGTTVTVSS
chain 2: QSVLTQPPSVSGAPGQRVTISCTGSSSNIGAGYDVHWYQQLPGTAPKLLIYGNSNRPSGVPDRFSGSKSGTSASLAITGLQAEDEADYYCQSYDSSLSDNWVFGGGTKLTVL
> 1 µg/mL: all assays above
